Assay results: the supplement of paper PMC11417369
± gives the standard deviation of the averaged measurements. The list shows a part of the results.

tested on: PfAP2-EXP AP2 domain (GST-tagged); assay: gcPBM binding intensity (ln(normalized median fluorescence intensity)); higher = stronger DNA binding
Method in brief: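 Each value is the highest Masliner-normalised natural-log median intensity across replicate spots of either orientation of a probe. The probes were primer-extended double-stranded 36-bp intergenic genomic sequences on an Agilent 4 × 180k array, alongside negative controls, exposed for 1 h to GST-tagged P. falciparum DNA-binding domains expressed in E. coli. Bound protein was picked up with Alexa488 anti-GST antibody and scanned at 488 nm.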

Sequence	gcPBM binding intensity (ln)
TGTTATTATTAAGACACACACACAAAAAAAAAAAAA [CACACA_site1481]	8.49 ± 0.58
TGAACTCATAGGAAAACACACATATGTGCAATATAT [CACACA_site6231]	9.14 ± 0.44
ACAATGATAGTGTAAAGTACATATATATAAAAAAAT [XGTACX_site5928]	8.98 ± 0.51
TTTATAATATGTTATACATGCAGGTACCTTTTTGTA [TGCATGCA_site746]	8.93 ± 0.4
ATTTATAATTTTTGAGCACACACAAGCATATATATA [CACACA_site8531]	8.66 ± 0.32
TCCTTATTTTGCAGGAGTACCATTTTTTAAAAATAC [XGTACX_site5968]	8.81 ± 0.21
AATAACAATTATAAAAGTACAGATTTTTATTTCTAA [XGTACX_site5746]	8.08 ± 0.28
ACAATTACTTATTTTAATTTTTTTAATCTATTGATT [CACACA_negctrl_site967]	8.18 ± 0.39
TTTTTTTTGTTATGAACATGCAAATTAAAATATAAT [TGCATGCA_site954]	8.46 ± 0.39
TAAATACATAAAAATTGTACACATTGTTTTCTCTTT [XGTACX_site6435]	8.35 ± 0.42
CAACAATTTCGTCATACACACATTCAGAATATATAT [CACACA_site2370]	8.6 ± 0.51
TACTTTTCTTAAAGATGTACGTTTTAAAAATAAAAT [XGTACX_site14]	8.31 ± 0.22
AAGGAAATAATTAAATGTACAAAAAAAAAAAAAATT [XGTACX_site562]	8.46 ± 0.4
TACAAACAAACACATAGCAATATATGTTATCAAAAA [XGTACX_negctrl_site1]	8.53 ± 0.4
TTTTATGCTCAATTATTAAGAAATACTTTTTCTTCC [XGTACX_negctrl_site208]	8.38 ± 0.41
ATATTTTTTTTTCTTTCGCACACGTGAAAGAATTTC [CACACA_site8636]	8.73 ± 0.43
AAAATAAAAATTAACTGTACATACATTATTCAAATT [XGTACX_site6106]	8.37 ± 0.39
AGAAGTTTATCTTTTAGTACGCATAAAAAAAAAAAA [XGTACX_site2359]	8.63 ± 0.43
TATAAATAATTATATTGTACTCTTTATATTTTTCTT [XGTACX_site5335]	8.59 ± 0.32
TATAGTAATATTTGAAGTACAAAATTAAAATAAATA [XGTACX_site7634]	8.57 ± 0.33
TTAAATAGCTGTAATTGTACAAATAAATACATAAAT [XGTACX_site3097]	8.7 ± 0.42
TTATATAAGGTCTATATATAAATATTAATGATAAGG [TGCATGCA_negctrl_site354]	8.38 ± 0.4

Sequence	gcPBM binding intensity (ln)
TTAATATTTTGATGTGTACACATTAAAATAGTTTTA [CACACA_site5712]	8.21 ± 0.36
GGGAGGATATTTCACAGTACCCAGGAAATCTGCGGA [XGTACX_site2555]	8.69 ± 0.49
TAAATATATATATGGTGTACCATTTTGGGTTAATAT [XGTACX_site2706]	8.49 ± 0.3
TATATTATTTTTTATTGTACTTAAAAATATTATTTG [XGTACX_site1443]	8.46 ± 0.35
AGTTTAAATTAAATTACACACTACGAATAATATATT [CACACA_site7811]	8.43 ± 0.33
AGTATAAGCATTATTGTGCACATAATTATAATTTTT	9.1 ± 0.085
TATTAATCTTTTTTTAAACAAAAAATTAAGCAAATT [CACACA_negctrl_site884]	8.09 ± 0.38
AATAATGAAACAGGAAAAAAATATTGTTAAAATGTA [XGTACX_negctrl_site400]	8.85 ± 0.27
GTTGCAATTAACACTAGTACATATAAGTAGTTTATT [XGTACX_site2063]	8.72 ± 0.18
ATTGTTCTCCAAAAGTGTACGTATTATTTTTCTGGA [XGTACX_site1404]	8.71 ± 0.43
TATATATTAATAAATAGTACCCGTGGAATTTATATT [XGTACX_site5855]	8.44 ± 0.38
AACAAATATATTAACACACAAACATATAAACCAATG [CACACA_site3970]	8.86 ± 0.38
AACTAATAAAAAAAAAGTACACAATATGTAAATAAC [XGTACX_site5263]	8.88 ± 0.39
AAGCGAATATATATCACACACAAAAAAATCAGACTA [CACACA_site2108]	8.69 ± 0.57
AATTATTGTGAAGGGAAAACAAAAAAGTTTATAATT [CACACA_negctrl_site1337]	8.64 ± 0.52
ACCACATTTTTTTTTGCATGTTGTTTAAAAAAAGGC [TGCATGCA_site137]	8.78 ± 0.42
AAATTAATTAAATATACACACATATATAGATATATA [CACACA_site6321]	8.32 ± 0.38
TATATATTATATATATGTACATACTTTTTACGTTCA [XGTACX_site2493]	8.71 ± 0.46
TATATATAATATATATGTACATAATATATTTTATAT [XGTACX_site2909]	8.19 ± 0.29
TAAAACACTCATGGCACACATAAAACATTTTTATGA [CACACA_site3574]	8.33 ± 0.52
ATTATTATTTATATGATACACACGTACATATACGCA [CACACA_site3823]	8.39 ± 0.33
TATAAAAAATAATTATCATGAAATATATGATCATCA [TGCATGCA_negctrl_site137]	8.48 ± 0.4

Sequence	gcPBM binding intensity (ln)
ATATGAATAAATAAAAGTACATACATAATGTATTAT [XGTACX_site5969]	8.56 ± 0.28
TCAAAAATGAGTTACACACACACATATATATATATA [CACACA_site2229]	10.2 ± 0.47
TATATTTTTTATAAATGTACATGGATAGGCATAAAC [XGTACX_site8401]	8.94 ± 0.15
TTAAAAAAAATATAATGTACTTGTAGAATTATATTT [XGTACX_site6220]	8.09 ± 0.26
ACAAATAAATAAAAAACACACACAAATAAATAAATA [CACACA_site8708]	8.62 ± 0.5
AGTATATAAAATACTGTATCGATGGGGGAGGGCGCA [CACACA_negctrl_site1612]	9.97 ± 0.23
AATATAATGCAATATACACACATATATTTCTCTTTT [CACACA_site7276]	8.42 ± 0.33
TAATAATAAAATATTTGTACATATAAAATATGGCTG [XGTACX_site7904]	8.39 ± 0.38
AATTTTTTTCTCCAAGTGCATTAGAACATTAACGTA [GTGCAC_site9413]	8.63 ± 0.11
ATATATTTATGTATCACACACAAAAAAAAAAAATAA [CACACA_site255]	8.39 ± 0.36
ATTTTCCTTTAATTATGTACTTATGTAATAATAATG [XGTACX_site2612]	8.51 ± 0.33
ATCTCTACAAAGTGCACACACGTAAAAACATATATA [CACACA_site6046]	9.04 ± 0.35
GCACACATATAATTAAACATATATTTGTATTATTTT [GTGCAC_negctrl_site327]	8.37 ± 0.3
GTATCATAAAAGTATACACACATACATACATATGTA [CACACA_site5456]	8.56 ± 0.37
TGTATGATTATGTTGTGTACGTAAAATATGAAAAAT [XGTACX_site1720]	9.12 ± 0.42
TATCCTAATGCTACCACACACACAAAAACAAATAAT [CACACA_site2609]	8.74 ± 0.57
CCTTACTTCTTATAAAGTACCCAATGATATACATTA [XGTACX_site1554]	8.41 ± 0.31
AAAAAAAAGAATAGAGCATGCAAAATATATGAAATA [TGCATGCA_site933]	9.48 ± 0.29
ATGTTGAAAGGAAAAAATAATAAAATCGATATATTA [CACACA_negctrl_site549]	8.41 ± 0.39
AATATTTATGGGTGCACACAAACATACATATATATA [CACACA_site3395]	9.04 ± 0.15
TTTTAATGTATATTTTGTACGTATTATTAATATTCG [XGTACX_site8453]	8.55 ± 0.38
TTATCATTACATGAGTGTACATTATTATATTTTTTT [XGTACX_site7845]	8.56 ± 0.45

Sequence	gcPBM binding intensity (ln)
TAAAGATATAAATGCACACGTATTAAAAAAAAAATA [CACACA_site952]	8.79 ± 0.43
GAAAGAAAGAAAGAAAGTACATATAAAAATATACAT [XGTACX_site7299]	8.43 ± 0.48
ATATATTTTTTTTTTTGTACGTATATTTATATAATT [XGTACX_site8719]	8.81 ± 0.45
TCGTGTTTTAAAAAAATGAAGAAAAGTAAAAAAAAA [XGTACX_negctrl_site23]	8.46 ± 0.67
ATGATAGTAATTAATAGTACTTTTTTTGATACAAAA [XGTACX_site4288]	8.27 ± 0.33
ATTAAATGTATGACTTGTACATAAAATAAAAAAAAA [XGTACX_site6555]	8.61 ± 0.35
TAATATGAATATATATGTACATACAATTTGTTATAT [XGTACX_site5815]	8.47 ± 0.29
ATTAGTGACATTATTACACACAAAAGAAAACAGAAA [CACACA_site3984]	8.9 ± 0.47
TGAATCTATATACAGGTGCGTAAAAAATAACTTATA	8.59 ± 0.23
CAAGAATTAAAATAAAGTACAAAAGTAACAACTTTT [XGTACX_site1474]	8.25 ± 0.28
AAAAAAAAGGAAAAGGGTACAAAACCATACTTACAT [XGTACX_site4783]	8.62 ± 0.54
ATAATATAATATATATGTACACATCCTTTTTGTGTA [XGTACX_site2879]	8.62 ± 0.4
TAAAAGTAAAAAGGTAGTACCTAAATAATATATATA [XGTACX_site8399]	8.82 ± 0.099
TATATATCCTCTGAATGTACTTGTTTAATAATGTAG [XGTACX_site4332]	8.38 ± 0.43
TGTGTAATATTCTGTTGTACATAACTCATAAATAAA [XGTACX_site5308]	8.51 ± 0.33
ATAAGATAGGCATATACACACATTTATTTACAGATA [CACACA_site5754]	8.4 ± 0.47
TTCAACATATTAAAAAGTACAGAATATAACATTATA [XGTACX_site1361]	8.48 ± 0.42
GAATAAAAAATTGGCACACATAAATATATGGATATA [CACACA_site3047]	8.54 ± 0.51
AATAAATTTAGACACACACACACATATAAATAAATA [CACACA_site6531]	8.78 ± 0.54
TATACGTGAATGACAGTGCATTTCAAAAGTATAAAA [GTGCAC_site9887]	8.55 ± 0.32
TTTGGGTATACACATACATGCATGTCCTTATATATA [TGCATGCA_site84]	9.57 ± 0.39
ATATCATAAATTTATGCATGTTCTTTCTTCAACTCT [TGCATGCA_site992]	8.97 ± 0.49
